Measured values from the supplement of paper PMC11417369.
± gives the standard deviation of the averaged measurements. The list shows a part of the results.

The sequences below were run on PfAP2-EXP AP2 domain (GST-tagged) (assay: gcPBM binding intensity (ln(normalized median fluorescence intensity)); higher = stronger DNA binding).
How it was run: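 DNA-binding domains from P. falciparum, fused to GST and produced in E. coli, were put on an Agilent 4 × 180k double-stranded probe array for 1 h in 1× PBS holding 1% milk, 0.2 mg/ml BSA, 0.5% salmon testes DNA and 0.03% Triton X-100. Probes were primer-extended, 36 bp long and drawn from intergenic genomic regions, with negative controls included. After Alexa488 anti-GST antibody detection and a 488 nm scan, binding intensity was set as the highest Masliner-normalised natural-log median intensity across replicate spots of either probe orientation.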

In order of rising “gcPBM binding intensity (ln)” value:
1. AATCAATATAAATAAAATTTTTAATTTTAACCCTAA [GTGCAC_negctrl_site266]  8.05 ± 0.38
2. AATAATATGTTATCTCTTACACATATAAAAAATAAA [XGTACX_negctrl_site370]  8.18 ± 0.51
3. ATATGTAGTTTTTACCTAATAAAAAAAAAAAAAAAA [CACACA_negctrl_site672]  8.19 ± 0.37
4. TGTTATATCAATAATATATAATAATACCCTTCTTTT [CACACA_negctrl_site1682]  8.2 ± 0.36
5. TTTTTTTTTTTTTTTTGTACATAATTCCATATTTTT [XGTACX_site1789]  8.21 ± 0.69
6. ATGTAATGTTATGTTATGTTTTTTTTTTTTTTGTGT [CACACA_negctrl_site1264]  8.23 ± 0.58
7. TATGCTATATATTTAGTGCATATATATAACTTTTAT [GTGCAC_site9902]  8.26 ± 0.23
8. ACATTTTGTGTTTTAGCACACAATTTTTCAGAATAT [CACACA_site2961]  8.27 ± 0.2
9. AAAATTATATATTTTAGTACATAAAATATTGACATA [XGTACX_site2581]  8.28 ± 0.36
10. CAAAGGAAATGGTGTACACAATTTTTCCTTTTTCGT [CACACA_site4800]  8.29 ± 0.37
11. TAATATAAATGAAAGGTGCTTTTGCTTTCTTTTTTT  8.29 ± 0.15
12. TAATTAAAGTTATCTACACACCTTTATAGATATATA [CACACA_site7778]  8.29 ± 0.4
13. ATAGCTAAGATAGCTTGTACATATATTTACATATAT [XGTACX_site3694]  8.31 ± 0.29
14. ATTTAAATAATATTCACACACAAAATTAAATTTTAA [CACACA_site6246]  8.31 ± 0.52
15. ATGAATTTTTCTCTACAAAAGGATATAATAAAAATA [XGTACX_negctrl_site461]  8.31 ± 0.23
16. TATAAAATAAAAATTATATATTTTAAATGGATACAA [TGCATGCA_negctrl_site284]  8.32 ± 0.45
17. CGAAAAAATAAAAAAAAAATAAAATAAAATAAATAA [TGCATGCA_negctrl_site278]  8.32 ± 0.47
18. TATTAGCATGTTATTACACACAATATAAGATATATA [CACACA_site6775]  8.33 ± 0.42
19. ATATTATAATATTTATGTACATATATATAATATATA [XGTACX_site1633]  8.35 ± 0.24
20. TTTATACAAAAAAACAAAATCAAACAAAAAAAAAAA [CACACA_negctrl_site252]  8.36 ± 0.3
21. TCTGGATTGGATTACAAGAAAATAAAATATAAAATA [CACACA_negctrl_site122]  8.38 ± 0.4
22. TATAACACACAATGATGTACATTACATTATTTTTTA [XGTACX_site2076]  8.44 ± 0.37
23. TTTTCTATATAACAACGTACATTTATTATATTATAA [XGTACX_site6148]  8.44 ± 0.28
24. TTGTATTTACACGATCAACCAAATGGTATATAAATA [GTGCAC_negctrl_site167]  8.45 ± 0.45
25. ATTATATATATAAAGTGTACAAAAAAAAAAAAAAAA [XGTACX_site3134]  8.46 ± 0.33
26. AAAACAAATTAAAATCGTACAATTATAATGTTAATG [XGTACX_site180]  8.46 ± 0.42
27. TATACAAATATATATGCACACACATATATGTATATG [CACACA_site9007]  8.475 ± 0.035
28. AAAAAACATTTGATCTGTACGCATAGACAATTATAT [XGTACX_site960]  8.49 ± 0.28
29. CAATATATTTGATTTACACACTTACAATGTATTTAA [CACACA_site5632]  8.49 ± 0.44
30. TGATCTTTACACATATTATATATATATAAAAAAAAA [XGTACX_negctrl_site360]  8.49 ± 0.57
31. ATATATGTGCCCATATATATATATATAAATATATGT [GTGCAC_negctrl_site226]  8.51 ± 0.33
32. ATACATATAATAATATGTACATATAATTATATATAT [XGTACX_site913]  8.51 ± 0.22
33. AATTAAATGATTTATACATGCATATAAATATAAATA [TGCATGCA_site579]  8.53 ± 0.25
34. TATAAAACAAATATATGTACATATCATAGTATAATA [XGTACX_site2965]  8.53 ± 0.34
35. AAAAAAAAATCATATTGTACGTAAAAAAAAAAAAAA [XGTACX_site476]  8.55 ± 0.52
36. ACAGGATTGGTTCAAACACACATATTATAGGACTAT [CACACA_site6455]  8.55 ± 0.52
37. ATATTTAATTTGTATGGTACAGTACGATCTTTCTTT [XGTACX_site5533]  8.56 ± 0.55
38. TGTATAAATATATATACACACATATTTATATATATA [CACACA_site755]  8.575 ± 0.049
39. AAAATATTTATGTATGCATGTTGTAATATTTCTTTA [TGCATGCA_site296]  8.57 ± 0.42
40. AGTACGTAAATTATAATACACACTATAGGATATTCT [CACACA_site2559]  8.57 ± 0.35
41. TAAAAAAAAACAGAAACACACATTATTCATATATAT [CACACA_site2049]  8.58 ± 0.33
42. CCCTCAACGAATTTGAGTACACATTTTAAATGATAT [XGTACX_site7763]  8.58 ± 0.47
43. ATTATGAATTTAAGACGTACAAAAAATTTTTATTCA [XGTACX_site5682]  8.59 ± 0.47
44. TTTGGTTATTTGACCTGTACACATTTAATTATTTTT [XGTACX_site5170]  8.6 ± 0.45
45. TATTACATAATATATGTACACACGCAAATACTTATA [CACACA_site7994]  8.61 ± 0.37
46. GTTATTGTAAAAAGATTACACACGTTCTATATACTT [CACACA_site2473]  8.62 ± 0.37
47. AATATGTTTTGTTAGGTTGGTGTTGGTAGAATGTTT [CACACA_negctrl_site1563]  8.62 ± 0.64
48. AATCTAGGTATTTATACACACTAAAATAATATACGA [CACACA_site4515]  8.62 ± 0.5
49. AATATATATTTATAAACACACACCAAAATTTGTGCT [CACACA_site3091]  8.64 ± 0.38
50. AAAAAAAAAAAAAATACACACACACCGATATATATA [CACACA_site8142]  8.65 ± 0.51
51. TACACCATGATACATACACACAGACATATACACATT [CACACA_site6601]  8.66 ± 0.37
52. TAAAAGAAAGCACATACACACACAAAAAAAAAAAAG [CACACA_site8159]  8.66 ± 0.5
53. AAATACTTATTCGTGGTGCAACAATTTTAAAAATTA  8.66 ± 0.25
54. TATTTTAATAAGAATAAATGAAATGAAATGAAATAT [CACACA_negctrl_site823]  8.66 ± 0.41
55. TATATATGTATCATTACACACATGTATACTTATTTG [CACACA_site4138]  8.68 ± 0.43
56. GATATATTTTATATATGTACATACAGTGGTAAATAT [XGTACX_site1324]  8.7 ± 0.24
57. TCTGTAAATATGTATACACACATATATGATCAATAT [CACACA_site3234]  8.7 ± 0.38
58. AAAAAAAAAAGAAACACACACATATAGATTTATAAC [CACACA_site6927]  8.71 ± 0.5
59. ACATCCTATAAATAGAGTACGTAAATTATAATACAC [XGTACX_site5338]  8.71 ± 0.2
60. TAAACATATAAAAAGGGTACACATTAAACATAGTAT [XGTACX_site7096]  8.72 ± 0.45
61. TTTTCTACATCTTGTTGTACGAAAAATAAAAAAAAT [XGTACX_site4620]  8.72 ± 0.47
62. ATCGCAAGATTAATATAAGGAGAAACGTTTATATAT [GTGCAC_negctrl_site267]  8.76 ± 0.5
63. ATGCACATTTATAAAAGTACATGTATGTAATATGTT [XGTACX_site830]  8.77 ± 0.33
64. ACATATATATATATATATATATATATATTTATTTAT [CACACA_negctrl_site734]  8.785 ± 0.064
65. ACTTAATTTTTTTATTGTACATGTAAATGAGGGAAA [XGTACX_site6305]  8.79 ± 0.45
66. AAATCATTCCTTTATTCACACAATATCTGTATTTAT [CACACA_site4407]  8.8 ± 0.42
67. GCTCTAATTAATATTTGTACACACATATTTAACCTA [XGTACX_site6808]  8.8 ± 0.3
68. AATAATATATTATATGCATGTGTATAATTTGATATA [TGCATGCA_site1058]  8.8 ± 0.3
69. AAAAAATTAACCGTAACACACACACCGATATATATA [CACACA_site9312]  8.81 ± 0.42
70. ATTAAAATAATACGTACACACATGTATAATACATAT [CACACA_site1005]  8.81 ± 0.29
71. CAAAAAAAGTTATACACACACACACGGATATAAATA [CACACA_site6619]  8.81 ± 0.61
72. ATAAGAATATATAGAGTGCGTTGAAGAATTATAATA  8.84 ± 0.36
73. ATAATCCTTAGACACACACACACACGAATAAATAAA [CACACA_site6364]  8.87 ± 0.34
74. TTATACTGTACAAAAAGAATAGCAGTATAACAAAAA [CACACA_negctrl_site755]  8.88 ± 0.46
75. TTATAACATATAAACATGTTTCATCTTACGTATTTT [GTGCAC_negctrl_site694]  8.96 ± 0.3
76. TACATTTGTATAAATAGTACGCGAAAACAAAAAAAA [XGTACX_site6246]  9.02 ± 0.43
77. ATTTAAATGAAAAAATGTACAAAAAGATTTAAACTC [XGTACX_site1489]  9.04 ± 0.4
78. ATTTCCCCTTTTTATTGTACATTTTTATTTGTTACT [XGTACX_site4845]  9.14 ± 0.64
79. AGTAGAAAAGGAACATGTACGAATTAAAAAAATAAT [XGTACX_site2347]  9.14 ± 0.44
80. AGCAAGACGGGGTGCACACAAACTAATATGCCGAAT [CACACA_site159]  9.26 ± 0.11
81. ACAAGTATTCCTTTTGCACACCTTTCTGCACCTTAT [CACACA_site3873]  9.35 ± 0.26
82. TAATATATTTTTAACATGCACTGTATTTTAATATAT  9.36 ± 0.29
83. GGAATATGTATATTTTGTACGTATACATTTTTTGGG [XGTACX_site7681]  9.49 ± 0.75
84. TAACAACGATACAATTGTACAAATTATATATATATA [XGTACX_site4687]  9.89 ± 0.24
85. AATATAATATACATATGTACATATATATATATATAT [XGTACX_site8218]  10 ± 0.32
86. TATATATATATATATTGTACAAAGATTAATATATAA [XGTACX_site8433]  10 ± 0.2
87. TTTTAAACAGGACACACACACATATATATATATATA [CACACA_site4664]  10.1 ± 0.42
88. ATATATATATATATGTGTACATATTTTTTTGAAGTG [XGTACX_site248]  10.1 ± 0.29
